# Data from publication PMC4336329 (PLoS ONE, 2015).
# About 2,200 (0.71%) of roughly 310,000 compounds showed an effect of 50% or more. Effects have a minus sign here. The list shows a part of the results.
# Biological target: human ether-à-go-go-related gene (hERG) potassium channel (human, UniProt Q12809)
# Assay: primary screen, population patch clamp on CHO cells stably expressing hERG
# Sequence of human ether-à-go-go-related gene (hERG) potassium channel (Q12809 whole entry, looked up): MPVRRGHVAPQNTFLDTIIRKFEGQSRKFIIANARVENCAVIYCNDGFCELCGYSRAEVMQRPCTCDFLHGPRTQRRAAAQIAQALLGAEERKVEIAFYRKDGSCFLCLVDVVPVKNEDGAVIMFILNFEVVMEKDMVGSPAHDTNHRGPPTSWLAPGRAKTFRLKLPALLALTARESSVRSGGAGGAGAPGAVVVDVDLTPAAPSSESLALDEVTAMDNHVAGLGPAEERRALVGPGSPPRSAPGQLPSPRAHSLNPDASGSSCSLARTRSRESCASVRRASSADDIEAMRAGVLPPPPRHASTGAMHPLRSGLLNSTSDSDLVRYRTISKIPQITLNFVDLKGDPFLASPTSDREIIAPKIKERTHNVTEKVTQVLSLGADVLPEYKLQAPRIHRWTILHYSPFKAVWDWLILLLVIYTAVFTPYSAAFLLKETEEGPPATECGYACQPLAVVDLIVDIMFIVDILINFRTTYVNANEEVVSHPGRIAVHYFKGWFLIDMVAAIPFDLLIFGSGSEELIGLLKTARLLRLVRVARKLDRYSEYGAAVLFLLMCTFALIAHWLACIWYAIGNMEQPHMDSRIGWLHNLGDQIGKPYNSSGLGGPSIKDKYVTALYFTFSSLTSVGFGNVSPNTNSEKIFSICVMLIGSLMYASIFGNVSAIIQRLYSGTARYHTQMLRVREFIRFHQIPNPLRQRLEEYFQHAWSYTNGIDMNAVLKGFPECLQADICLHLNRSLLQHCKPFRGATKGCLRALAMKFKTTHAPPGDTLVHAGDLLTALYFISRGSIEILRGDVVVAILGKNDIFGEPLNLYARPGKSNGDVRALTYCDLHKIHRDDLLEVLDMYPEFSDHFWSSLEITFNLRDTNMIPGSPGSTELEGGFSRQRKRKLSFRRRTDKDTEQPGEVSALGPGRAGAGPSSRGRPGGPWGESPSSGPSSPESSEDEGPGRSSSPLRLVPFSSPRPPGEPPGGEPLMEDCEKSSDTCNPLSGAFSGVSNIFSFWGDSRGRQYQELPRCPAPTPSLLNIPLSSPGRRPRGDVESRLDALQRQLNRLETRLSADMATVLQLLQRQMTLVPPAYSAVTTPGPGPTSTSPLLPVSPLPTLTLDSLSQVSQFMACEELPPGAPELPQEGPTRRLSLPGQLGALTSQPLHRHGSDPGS
row,SMILES,"hERG current change (%, negative = inhibition) at 1uM"
1,Cc1ccc(S(=O)(=O)NN=C2CCC(C(C)(C)C)CC2)cc1[N+](=O)[O-] (stereo not shown),12.8%
2,O=C(Nc1ccc(Cl)cc1)NC1CCCCC1Cc1ccco1 (stereo not shown),4.96%
3,O=C(CCCCCNC(=O)N1CCn2c1nc1ccccc12)N[C@H](Cc1ccccc1)C(=O)O,6.26%
4,C=C1CCN([C@@H](CC(C)C)C(=O)N2CCOCC2)S(=O)(=O)c2ccccc21,18.4%
5,OC1(c2cccc(F)c2)CCN(Cc2ccncc2)CC1,-0.518%
6,CC1=NNC(=O)C(CC(=O)Nc2ccc(Cl)c(Cl)c2)C1 (stereo not shown),-4.82%
7,CC(C1CC2CCC1C2)n1c(-c2cccs2)n[nH]c1=S (stereo not shown),8.52%
8,Cc1nn(C)cc1CNC(=O)C1C2CCC(O2)C1C(=O)O (stereo not shown),18.3%
9,O=C(NCc1ccccc1)C(C(=O)c1ccc(F)cc1)n1ccccc1=O (stereo not shown),8.23%
10,CCOC(=O)Cn1c(N2CCCCCC2)nc2c1c(=O)[nH]c(=O)n2C,12.2%
11,CC(C(=O)O)N1C(=O)/C(=C/C=C/c2ccco2)SC1=S (stereo not shown),6.3%
12,O=C(N/N=C/c1ccccc1O)C1CC(=O)N(c2ccc(F)cc2)C1 (stereo not shown),3.42%
13,CCOC(=O)C1=C(C)NC(SCc2cc(=O)[nH][nH]2)=C(C#N)C1c1cccs1 (stereo not shown),13.7%
14,COc1ccc(CCNC2=C(Cl)C(=O)N(CCc3ccc(OC)c(OC)c3)C2=O)cc1OC,9.08%
15,Cc1cc(C)c(NC(=O)C2CCCO2)c(C)c1 (stereo not shown),12.9%
16,Cn1c(=O)cc(OCCCC(=O)Nc2ccccn2)c2ccccc21,3.49%
17,COC(=O)c1cc2ccsc2n1CC(=O)NCC1CCCO1 (stereo not shown),8.07%
18,CCc1ccccc1NC(=O)N[C@@H](C)C(=O)O,-0.333%
19,Clc1cccc(COn2c(-c3ccc(Cl)cc3Cl)nc3ncccc32)c1,9.23%
20,O=C(NCCN1CCCC1=O)C1CCC(=O)N(CCc2ccc(Cl)cc2)C1 (stereo not shown),-5.26%
21,COc1cc(NC(=O)c2oc3ccccc3c2C)ccc1NC(=O)c1ccco1,15.6%
22,CCOC(=O)C1=C(COC(=O)c2cccc(N(C)C)c2)NC(=O)NC1C (stereo not shown),13.8%

row,SMILES,"hERG current change (%, negative = inhibition) at 1uM"
1,CN(/N=C/c1cccnc1)c1cnn(-c2ccc(F)c(Cl)c2)c(=O)c1Cl,3.74%
2,CCOC(=O)C1CCCN(C(=O)COc2ccc(N(C)S(=O)(=O)c3ccc(F)cc3)cc2)C1 (stereo not shown),-25.1%
3,Cc1nc(NC(=O)CN2CCOCC2)sc1-c1ccccc1,7.04%
4,COC(=O)c1ccc(N2CCN(C)CC2)c(NC(=O)c2cccs2)c1,11.9%
5,CCn1c(=O)cc(SCC(=O)NCCCN2CCN(c3ccc(F)cc3)CC2)c2ccccc21,-6.48%
6,C/C(=N\N=C(/N)SC1CC(=O)N(c2ccc(Br)cc2)C1=O)c1cccs1 (stereo not shown),-0.809%
7,O=C(O)c1cccnc1SCCc1ccccc1,2.26%
8,CCN(C(=O)c1ccc2c(OC)n(CC)nc2c1)c1ccc(OC)cc1,0.888%
9,C/C(=N\NC(=O)C(C)Sc1ccccc1)C(C)(C)C (stereo not shown),4.08%
10,O=C(Nc1ccc(Oc2ccc(NC(=O)Nc3ccc([N+](=O)[O-])cc3)cc2)cc1)Nc1ccc([N+](=O)[O-])cc1,15.7%
11,CCCCn1c(N)c(N(CCOC)C(=O)c2ccc(C)o2)c(=O)[nH]c1=O,11.7%
12,COc1ccccc1NC(=O)C(=O)N(c1cccnc1)C(C(=O)NC(C)(C)C)c1ccccc1 (stereo not shown),-5.38%
13,Cc1ccc(C)c(NC(=S)NCCN(C2CCCCC2)C2CCCC2)c1,-25.4%
14,CCc1nc2cc3sc(CC)nc3cc2s1,3.35%
15,Cc1ccc(C)c(NC(=S)NCc2cccn2C)c1,-0.17%
16,Cc1cc(N=Cc2c(O)ccc3cc(Br)ccc23)no1,5.18%
17,CNC(=S)N(C)CCc1cc2c(c(OC)c1C=C1C(=O)NC(=O)NC1=O)OCO2,9.86%
18,CCOP(=O)(OCC)C(C)(C)NC(=O)Nc1ccc(Cl)c(Cl)c1,9.82%
19,Cc1cc(C(=O)N2CCN(c3ccc([N+](=O)[O-])cc3)CC2)no1,-36%
20,O=C(CS(=O)(=O)c1ccc(Cl)c(Cl)c1)Nc1ccccc1Cl,22.4%
21,COc1cc(C(=O)NC(CCSC)C(=O)OCc2cc([N+](=O)[O-])cc3c2OCOC3)cc(OC)c1OC (stereo not shown),-0.836%
22,CS(=O)(=O)c1ccc2nc(NC(=O)c3ccc(Cl)cc3)sc2c1,6.92%

row,SMILES,"hERG current change (%, negative = inhibition) at 1uM"
1,O=C(CNC(=O)C1CCCCC1)NNC(=O)c1ccc(Cl)cc1Cl,11.6%
2,Cc1cc(Oc2ccc3ccccc3c2)nc(SCC(=O)c2ccccc2)n1,11.5%
3,C/C(=N\NC(=O)c1n[nH]c2c1CCC2)c1ccco1,10.2%
4,CCOC(=O)c1c(NC(C)=O)sc2c(O)c(CN3CCN(CC)CC3)ccc12,11.2%
5,Cc1cc(C)n2nc(C(=O)OCCOc3cccc(Br)c3)nc2n1,-11%
6,COc1ccccc1N1CCN(C(=O)c2oc3ccc(Br)cc3c2C)CC1,14.2%
7,Nc1ccc(S(=O)(=O)O)cn1,4.06%
8,CN(CCNC(=O)C1CCN(S(=O)(=O)N2CCOCC2)CC1)CCc1ccccc1,-2.64%
9,CN(CP(=O)(O)CCc1ccccc1)S(C)(=O)=O,11.4%
10,O=C(COc1ccc2oc3c(c2c1)CCCC3)Nc1ccccn1,9.85%
11,Cc1nc(SCC(=O)Nc2ccc(F)cc2)c(C#N)c(C)c1CC(=O)c1ccc(Br)cc1,11.2%
12,O=C(CNS(=O)(=O)c1ccccc1)OCC(=O)c1ccccc1Cl,9.62%
13,COC(=O)c1c(NC(=S)NN2CCOCC2)sc2c1CCCC2,7.1%
14,CCOC(=O)CSc1nc(C)cc(=O)[nH]1,15.2%
15,COc1ccc(NC(=O)Cn2c3ccccc3c3nc4n(c(=O)c32)CCS4)cc1OC,21.4%
16,COC(=O)c1cccc(NC(=O)Cc2nc(-c3ccccc3)sc2-c2ccc(C)cc2)c1,12.9%
17,O=C(CN1CCN(C(=O)c2ccc(-c3nc4ccccc4s3)o2)CC1)Nc1ccc(F)cc1,-42.8%
18,Oc1ccc(CNc2ccc(F)cc2)c2cccnc12,9.56%
19,O=C(CN1C(=O)C2C3C=CC(C3)C2C1=O)OCC(=O)c1ccccc1 (stereo not shown),4.53%
20,Cc1ccc(CSc2nnnn2C)cc1,11.1%
21,Cc1cc(C)c2cc(C(c3nnnn3C3CCCC3)N3CCOCC3)c(=O)[nH]c2c1 (stereo not shown),9.74%
22,CN(C)c1ccc(C(=S)N2CCN(C(=S)Nc3ccccc3)CC2)cc1,18.7%

row,SMILES,"hERG current change (%, negative = inhibition) at 1uM"
1,O=C(COC(=O)COc1ccccc1[N+](=O)[O-])NC1CCCC1,15.8%
2,CC(C)(C)C(=O)NNC(=O)COc1ccc2ccccc2c1Br,12%
3,COc1ccc(-c2cc3ccc(OCC(C)=O)cc3oc2=O)cc1,22.2%
4,COc1ccc(CN2C(=O)CC(=O)NC2=S)cc1,13%
5,Cc1ccc(S(=O)(=O)N2CCCC(C(=O)NCc3ccc4c(c3)OCO4)C2)cc1 (stereo not shown),8.44%
6,CC(=O)C1=C(O)C(=O)N(c2ccc(O)cc2)C1c1ccccc1[N+](=O)[O-] (stereo not shown),11.5%
7,COc1ccc(N2CCN(C(=O)C3CCN(S(=O)(=O)c4ccc(F)cc4)CC3)CC2)cc1,0.532%
8,CCOc1ccc(C(=O)C(C)OC(=O)c2nc(Cl)ccc2Cl)cc1 (stereo not shown),-1.36%
9,CCOc1ccc(C2C(C(=O)c3cccs3)=C(O)C(=O)N2CCCn2ccnc2)cc1 (stereo not shown),2.41%
10,CC(=O)c1ccc(NC(=O)c2sc3nc(N4CCOCC4)c4c(c3c2N)CCCC4)cc1,13.3%
11,COC(=O)C1C(c2ccccc2)C(C(=O)OCc2ccco2)C1c1ccccc1 (stereo not shown),6.64%
12,CCN(CC)S(=O)(=O)c1ccc(-c2nnc(SCC(=O)N3CCc4ccccc43)o2)cc1,10.8%
13,COc1ccc(C(CNC(=O)COc2c(C)cc(C)cc2C)N2CCOCC2)cc1 (stereo not shown),14.3%
14,CCN(C(=O)COC(=O)/C=C/c1ccc(O)c(OC)c1)C1CCS(=O)(=O)C1 (stereo not shown),9.78%
15,COc1ccccc1C(=O)Nn1c(C)nc2ccccc2c1=O,14.8%
16,O=C(COc1ccc(Cl)cc1Cl)NC1CCSC1=O (stereo not shown),12.5%
17,O=C(c1ccco1)N1CCN(C(c2ccc(Cl)cc2)c2nnnn2CC2CCCO2)CC1 (stereo not shown),-0.951%
18,CCOC(=O)c1cnn(-c2sc(C(=O)OCC)c(C)c2C(=O)OCC)c1N,16.6%
19,CCOCCOCCC(C(=O)OCC)P(=O)(c1ccccc1)c1ccccc1 (stereo not shown),6.44%
20,COCCn1c(Cc2ccccc2)nnc1SCC(=O)N1CCOCC1,11%
21,CCN(CC)C(=O)CNc1ccc(C(F)(F)F)cc1[N+](=O)[O-],5.65%
22,COc1ccccc1CNC(=O)CCCc1nnc2n(C)c(=O)c3sccc3n12,10.1%
